{
  "sequences": {"note": "Amino acid sequences for entries named in this document (tags omitted).", "UniProt O43143": "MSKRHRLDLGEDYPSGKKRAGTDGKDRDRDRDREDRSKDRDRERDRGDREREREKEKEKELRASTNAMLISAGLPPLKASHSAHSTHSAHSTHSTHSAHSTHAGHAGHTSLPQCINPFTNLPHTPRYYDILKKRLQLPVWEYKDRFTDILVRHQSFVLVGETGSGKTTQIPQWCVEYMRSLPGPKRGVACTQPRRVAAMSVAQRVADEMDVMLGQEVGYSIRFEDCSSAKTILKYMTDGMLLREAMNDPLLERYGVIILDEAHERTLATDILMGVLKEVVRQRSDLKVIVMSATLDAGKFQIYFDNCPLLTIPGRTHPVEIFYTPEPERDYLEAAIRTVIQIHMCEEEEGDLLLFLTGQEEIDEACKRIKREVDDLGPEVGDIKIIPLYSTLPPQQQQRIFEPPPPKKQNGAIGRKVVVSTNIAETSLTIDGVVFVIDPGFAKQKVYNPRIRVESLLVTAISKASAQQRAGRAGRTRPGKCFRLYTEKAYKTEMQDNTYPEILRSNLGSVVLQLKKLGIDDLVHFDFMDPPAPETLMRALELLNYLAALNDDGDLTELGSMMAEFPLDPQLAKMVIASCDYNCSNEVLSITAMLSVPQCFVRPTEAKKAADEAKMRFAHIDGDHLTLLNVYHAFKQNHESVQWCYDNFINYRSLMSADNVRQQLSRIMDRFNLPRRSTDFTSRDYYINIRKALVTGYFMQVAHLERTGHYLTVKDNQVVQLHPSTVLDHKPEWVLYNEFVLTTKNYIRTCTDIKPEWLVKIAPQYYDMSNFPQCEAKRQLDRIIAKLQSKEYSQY", "UniProt Q7Z434": "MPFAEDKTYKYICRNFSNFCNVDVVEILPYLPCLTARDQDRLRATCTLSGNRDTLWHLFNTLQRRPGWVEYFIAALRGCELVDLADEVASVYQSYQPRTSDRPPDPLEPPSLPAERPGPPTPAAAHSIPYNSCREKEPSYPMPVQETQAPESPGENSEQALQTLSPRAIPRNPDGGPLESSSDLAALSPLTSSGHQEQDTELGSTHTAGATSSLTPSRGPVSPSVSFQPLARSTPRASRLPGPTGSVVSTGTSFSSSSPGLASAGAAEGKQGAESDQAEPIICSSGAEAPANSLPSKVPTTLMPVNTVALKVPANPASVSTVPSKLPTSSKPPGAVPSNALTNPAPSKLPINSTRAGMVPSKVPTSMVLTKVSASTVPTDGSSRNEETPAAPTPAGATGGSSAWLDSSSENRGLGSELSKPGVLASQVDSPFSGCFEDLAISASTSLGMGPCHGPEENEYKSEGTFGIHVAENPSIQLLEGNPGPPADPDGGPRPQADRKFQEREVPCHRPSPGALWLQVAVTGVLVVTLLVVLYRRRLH"},
  "source": "paper PMC11680366",
  "key": {"[1]": {"molecular_target": "Myc-DHX15 (DEAH-box polypeptide 15) (human) (UniProt O43143)", "assay": "co-IP; as a1, but mock-treated HT1080 cells expressing Myc-DHX15 (no 2-5A); Myc-tag beads; Rig-I and MAVS probed by immunoblot"}, "[2]": {"molecular_target": "Myc-DHX15 (DEAH-box polypeptide 15) (human) (UniProt O43143)", "assay": "co-IP; HT1080 cells expressing Myc-DHX15 for 24 h, then transfected with 2-5A (10 uM) or RL RNAs (2 ug/mL) for 8 h; 500 ug of lysate (0.5% NP-40, 90 mM KCl, 20 mM Tris pH 7.5) on Myc-tag beads, 4 °C, 16 h; Rig-I and MAVS detected by immunoblot"}, "[3]": {"molecular_target": "Myc-DHX15 (DEAH-box polypeptide 15) (human) (UniProt O43143)", "assay": "condition: only cells transfected with control RNAs (without RL RNAs); co-IP; as a1, but HT1080 cells expressing Myc-DHX15 transfected with control small RNAs (Ctrl RNAs, 2 ug/mL) for 8 h; Myc-tag beads; Rig-I and MAVS probed by immunoblot"}},
  "note": "These are yes or no findings as the source states them, for the method shown. In cells and extracts the contact can be indirect. Some binding calls cover weakened binding; strength is not graded here.",
  "data": [
    {"molecule": "Mitochondrial antiviral signaling (MAVS) (from UniProt Q7Z434 1-540)", "values": [
      {"measurement": "binding", "setting": "[1]", "result": "no binding (condition: mock-treated cells (without 2-5A))"},
      {"measurement": "binding", "setting": "[2]", "result": "binds"},
      {"measurement": "binding", "setting": "[3]", "result": "no binding"}
    ]},
    {"molecule": "Retinoic acid-inducible gene I (Rig-I) (protein, UniProt O95786 1-925) MTTEQRRSLQAFQDYIRKTLDPTYILSYMAPWFREEEVQYIQAEKNNKGPMEAATLFLKFLLELQEEGWFRGFLDALDHAGYSGLYEAIESWDFKKIEKLEEYRLLLKRLQPEFKTRIIPTDIISDLSECLINQECEEILQICSTKGMMAGAEKLVECLLRSDKENWPKTLKLALEKERNKFSELWIVEKGIKDVETEDLEDKMETSDIQIFYQEDPECQNLSENSCPPSEVSDTNLYSPFKPRNYQLELALPAMKGKNTIICAPTGCGKTFVSLLICEHHLKKFPQGQKGKVVFFANQIPVYEQQKSVFSKYFERHGYRVTGISGATAENVPVEQIVENNDIIILTPQILVNNLKKGTIPSLSIFTLMIFDECHNTSKQHPYNMIMFNYLDQKLGGSSGPLPQVIGLTASVGVGDAKNTDEALDYICKLCASLDASVIATVKHNLEELEQVVYKPQKFFRKVESRISDKFKYIIAQLMRDTESLAKRICKDLENLSQIQNREFGTQKYEQWIVTVQKACMVFQMPDKDEESRICKALFLYTSHLRKYNDALIISEHARMKDALDYLKDFFSNVRAAGFDEIEQDLTQRFEEKLQELESVSRDPSNENPKLEDLCFILQEEYHLNPETITILFVKTRALVDALKNWIEGNPKLSFLKPGILTGRGKTNQNTGMTLPAQKCILDAFKASGDHNILIATSVADEGIDIAQCNLVILYEYVGNVIKMIQTRGRGRARGSKCFLLTSNAGVIEKEQINMYKEKMMNDSILRLQTWDEAVFREKILHIQTHEKFIRDSQEKPKPVPDKENKKLLCRKCKALACYTADVRVIEECHYTVLGDAFKECFVSRPHPKPKQFSSFEKRAKIFCARQNCSHDWGIHVKYKTFEIPVIKIESFVVEDIATGVQTLYSKWKDFHFEKIPFDPAEMSK", "values": [
      {"measurement": "binding", "setting": "[1]", "result": "no binding (condition: mock-treated cells (without 2-5A))"},
      {"measurement": "binding", "setting": "[2]", "result": "binds"},
      {"measurement": "binding", "setting": "[3]", "result": "no binding"}
    ]}
  ]
}
